This is an account of results in ChEMBL document CHEMBL4888484, “Replenishing the malaria drug discovery pipeline: Screening and hit evaluation of the MMV Hit Generation Library 1 (HGL1) against asexual blood stage Plasmodium falciparum ,using a nano luciferase reporter read-out” (2022).

Out of some 150,000 compounds screened, about 540 (0.36%) showed an effect of 50% or more. Some of the results follow.

The experiment deals with Plasmodium falciparum. Nature of the experiment: Primary screen in NF54 nanoGlo assay, in single point, at 2uM, 72h; a lower Z score goes with more inhibition. Type of experiment: functional, Erythrocyte. As to conditions: timepoint 72 hour.
Usually % Inhibition stands for the drop in the measured response relative to a control, in per cent. As to `Cc1nccn1C[C@H]1CCCN(C(=O)c2c[nH]c3c(F)cccc3c2=O)C1`, the “% Inhibition” value is 6% and the Z score is reported as -1.18.

With `COc1ccc(CC[C@H](C)N2CCOc3ccc(CN(C)CCc4ccccn4)cc3C2)cc1`, the “% Inhibition” value is -16% and the Z score stood at 2.21.

Consider `Cc1nn(CC(N)=O)c(C)c1-c1ccc(OCc2ccccc2)nc1`, for which the “% Inhibition” value was -3% and the Z score is 0.4.

Consider `CC(C)OCc1cc(C(=O)N2CCOCC(F)(F)C2)ccc1F`, for which the “% Inhibition” value is reported as -11% and the Z score was determined as 1.43.

Take `CC(C)(C)c1ccccc1CNC(=O)C1CCC(O)CC1` (stereo unspecified): the “% Inhibition” value is listed as -6% and the Z score was 0.59.

In the case of `Cc1ncoc1C(=O)N1CCC2(CC1)C[C@H](CO)N(C(=O)c1ccccc1)C2`, the “% Inhibition” value is recorded as 12% and the Z score was -1.47.

`Cc1nc(-c2ccc(S(N)(=O)=O)cc2)n(C2Cc3ccccc3C2)n1`: the “% Inhibition” value is reported as -5% and the Z score is 0.76.

With `C#CCN(C)S(=O)(=O)c1c(C)cccc1F`, the “% Inhibition” value stood at 12% and the Z score was -2.35.

`O=C(NCC1CCCCC1)[C@H]1CCCN(c2nccn3nc(-c4ccccc4Cl)cc23)C1`: the “% Inhibition” value is -7% and the Z score is listed as 0.78.

With `COc1ccc(-c2nc(CCNC(=O)c3cccc(Cl)c3)n[nH]2)cc1`, the “% Inhibition” value was -7% and the Z score is reported as 1.35.

For the compound `CC(C)c1ccc(NC(=O)[C@H]2CCN(C)C(=O)C2)cc1F`, the “% Inhibition” value is on record as -7% and the Z score is 1.2.

For `CCNC(=O)N1CCN(c2ccc(-c3noc(-c4ccc(C#N)cc4F)n3)cc2)CC1`, the “% Inhibition” value is reported as -12% and the Z score is listed as 2.34.

For the compound `COc1ccc(-c2cc(C(=O)N[C@H](C)c3nnc4ccccn34)[nH]n2)cc1OC`, the “% Inhibition” value is reported as -10% and the Z score came to 1.28.

On to `CC(C)N1CCN([C@H]2CCOC3(CCN(C(=O)Cc4ccccc4)CC3)C2)CC1`, for which the “% Inhibition” value is reported as 0% and the Z score is listed as -0.02.

`Cc1ccccc1[C@@H](NC(=O)c1cc(CO)ccn1)c1ccncc1`: the “% Inhibition” value was 3% and the Z score is recorded as -0.41.

Turning to `CCN(CC)S(=O)(=O)c1ccc(=O)n(CC(=O)N2CCc3[nH]c4ccc(F)cc4c3C2)c1`, the “% Inhibition” value was -15% and the Z score was found to be 1.92.

On to `O=C(Nc1cc(Cl)ccc1NC1CC1)c1cc[nH]n1`, for which the “% Inhibition” value is on record as -12% and the Z score is 1.68.

Turning to `CCOc1ccc(Br)cc1NC(=O)N[C@@H](C)CCO`, the “% Inhibition” value came out at 6% and the Z score is -0.79.

On to `O=C(NCc1ccccc1Cl)c1ccc(-c2noc(C3CCCC3)n2)cc1`, for which the “% Inhibition” value is recorded as -15% and the Z score was 1.52.

Turning to `CCn1cc(CN(CCOC)CC2CCN(Cc3ccccc3F)CC2)cn1`, the “% Inhibition” value was -8% and the Z score came out at 1.55.

Turning to `Cc1ccnc(NS(=O)(=O)N(C)C)c1`, the “% Inhibition” value is given as -6% and the Z score was found to be 0.78.

Take `CC1CCC2(CC1)OC[C@H](CNC(=O)N(C)CCc1cnccn1)O2` (stereo partly specified): the “% Inhibition” value is -16% and the Z score worked out at 2.

In the case of `CC(C)(C)n1ccc(NC(=O)Cc2csc(-c3ccoc3)n2)n1`, the “% Inhibition” value is on record as -7% and the Z score was determined as 0.95.

With `Cn1c(=O)c2cn(S(=O)(=O)c3cccc(Cl)c3)nc2n(C)c1=O`, the “% Inhibition” value stood at 5% and the Z score is reported as -0.65.

With `NC(=O)NCC(=O)NCc1cc(-c2ccccc2)n[nH]1`, the “% Inhibition” value is recorded as -19% and the Z score is 2.37.

For the compound `c1ccc(CN2CC[C@H](c3nc4ccccc4s3)C2)cc1`, the “% Inhibition” value is 30% and the Z score is on record as -3.37.

On to `O=C(c1cnccn1)N1CC(N2C(=O)C3CC=CCC3C2=O)C1` (stereo unspecified), for which the “% Inhibition” value is on record as -1% and the Z score was found to be 0.26.

Take `COCC(=O)N1CCC[C@H](Oc2cncc(OC)n2)C1`: the “% Inhibition” value was -6% and the Z score is recorded as 1.08.

`N[C@@H]1COc2cccc(-c3cnn(C(F)(F)F)c3)c2C1`: the “% Inhibition” value was -12% and the Z score is listed as 2.18.

Regarding `COc1ccccc1N1CCN(C(=O)C[C@H]2C(=O)NCCN2C(C)C)CC1`, the “% Inhibition” value is -5% and the Z score is on record as 0.86.

Take `c1ccc(-c2cc(-c3cccnc3)nc3ccc4ccccc4c23)cc1`: the “% Inhibition” value worked out at 4% and the Z score is recorded as -0.79.

Consider `Cc1nc2ccc(NCC(=O)NC3(C#N)CCCC3)cc2s1`, for which the “% Inhibition” value was 0% and the Z score is recorded as -0.01.

In the case of `Cc1cccc(-c2ccc3nc(-c4ccc(Cl)cc4)c(CN4CCN(C(=O)COCc5ccccc5)CC4)n3c2)c1`, the “% Inhibition” value was -4% and the Z score is given as 0.58.

In the case of `O=C1N[C@@H](C2CC2)C(=O)N1c1cccc2ccccc12`, the “% Inhibition” value was determined as 3% and the Z score is given as -0.35.

Turning to `CCC1(C(=O)N2CCO[C@@H](CNC(C)=O)C2)CCCCC1`, the “% Inhibition” value is on record as 27% and the Z score was -3.93.

Regarding `CN(Cc1ccccc1)C(=O)C(F)(F)C(F)(F)C(F)(F)C(F)(F)F`, the “% Inhibition” value was determined as 5% and the Z score was -0.6.

Consider `N#Cc1ccccc1C(=O)NCC1(Cn2cccn2)CC1`, for which the “% Inhibition” value is listed as -6% and the Z score was determined as 1.03.

On to `CC(C)c1nc(CNC(C)(C)C(=O)O)cs1`, for which the “% Inhibition” value is reported as 5% and the Z score is listed as -0.61.

Turning to `COc1cc(C)c(CN2CCOc3c(O)cc(-c4cccs4)cc3C2)cc1C`, the “% Inhibition” value is listed as -10% and the Z score is recorded as 1.96.

Regarding `CCOc1ccc(C(=O)N[C@H]2CCN(Cc3csc(C)n3)C[C@@H]2O)cc1`, the “% Inhibition” value is given as -6% and the Z score turned out to be 0.98.

Turning to `CC(C)Cn1nc2n(c1=O)CC1CCC(C2)N1C(=O)c1cccnc1` (stereo unspecified), the “% Inhibition” value was -16% and the Z score is listed as 2.17.

For the compound `CCOC(=O)c1ccc(NC(=O)CN2C(=O)CCn3nc(-c4cn(C)c5ccccc45)cc32)cc1`, the “% Inhibition” value is 1% and the Z score was -0.24.

For `Cn1cnn(CC(=O)N2CCCc3ccc(Cl)c(Cl)c32)c1=O`, the “% Inhibition” value is -8% and the Z score is recorded as 0.68.
